Measured values published in PubChem BioAssay AID1671194 (National Center for Advancing Translational Sciences (NCATS), 2021).
Values joined by “and” are separate entries in the source; they are usually repeats but may differ in a detail not shown here. Identical values can stand only once. The campaign covered roughly 140,000 compounds. About 240 (0.17%) were called active. Inconclusive results, whose numbers are uncertain, are shown with a selection of clear calls. Calls come from the whole dose curve; as a rule, active = well fitted inhibition curve with a large enough effect; inconclusive = small, poorly fitted or top-dose-only effect; inactive = no such curve, though single readings can be large or run the other way. Where the call is inconclusive, the potency comes from a doubtful curve fit.

assay: Primary qHTS assay for inhibitors of alpha-synuclein gene (SNCA) expression; conditions: HEK-293 SNCA-luciferase knock-in, luminescence, 24 h; series mostly up to 57.2 µM; note: nearly all actives have a fitted effect of over 45% in size
Potency is the fitted concentration of half-maximal effect; tags give direction and shape of the fitted curve.

Compound	Potency
O=C(CCc1ccccc1)N1CCc2c([nH]c3ccccc23)C1c1ccc(F)cc1 (configuration not stated)	inactive
COc1ccc(CC(=O)N2CCc3cn(C)c4cccc(c34)C2)cc1	inactive
O=C(COc1ccc(F)cc1)N1CCC(N2C(=O)C3(CCCC3)C2c2ccccc2)CC1 (configuration not stated)	inactive
COc1ccc(CC(=O)N2CCCN(c3cc(-c4ccccc4)[nH]n3)CC2)cc1	inactive
CN(Cc1cccc(C(F)(F)F)c1)Cc1cccs1	inactive
Cc1ccc2oc(C(=O)Nc3ccc(S(=O)(=O)Nc4nc(C)cc(C)n4)cc3)cc(=O)c2c1	inconclusive: 22.4 µM [inhibitor, single point]
O=C(NCCc1ccc(Cl)cc1)c1cn2cc(-c3cccc(C(F)(F)F)c3)sc2n1	inconclusive: 1.58 µM [inhibitor, full curve, poor fit]
COc1ccc(-c2[nH]nc3ncc(-c4ccc(C)cc4)nc23)cc1F	inconclusive: 5.01 µM [inhibitor, full curve, poor fit]
CN1CCN(c2ccnc(-c3ccc(N(C)C)cc3)n2)CC1	inactive
Fc1ccc(-c2cnc3n[nH]c(-c4ccccc4)c3n2)cc1	inconclusive: 28.2 µM [inhibitor, partial curve, poor fit]
CC(C)NC(=O)N1CNC(=O)C12CCN(C(=O)c1ccccc1)CC2	inconclusive: 2.51 µM [inhibitor, partial curve, poor fit]
O=c1cc(O)c(Cl)c[nH]1	inconclusive: 42.9 µM [inhibitor, single point]
O=C(c1ccncc1)N1CC2CCC(C1)N2Cc1ccc(-c2ccccc2)cc1	inactive and inconclusive: 7.08 µM [inhibitor, single point]
CCN1CC(C(=O)N2CCC3(CC2)C(=O)N(C)c2ccccc23)CCC1=O (configuration not stated)	inconclusive: 2.24 µM [inhibitor, single point]
Cc1nn2c(c1-c1ccccc1C(N)=O)N(C(=O)Cc1cccc(F)c1)CCC2	inactive
O[C@H]1[C@H](NCc2ccc(F)cc2)[C@H]2CO[C@H](O2)[C@@H]1Oc1ccccc1	inactive
Cc1cc(C)c(NC(=O)Cc2ccc(-n3c(C)nc4cccnc43)cc2)c(C)c1	inconclusive: 20 µM [inhibitor, single point]
CCc1c(C)nc2nc(-c3ccccc3)nn2c1NCc1ccc(C)cc1	inconclusive: 28.2 µM [inhibitor, partial curve, poor fit]
COc1cccc(-c2cc(C(=O)NCCC(C)n3ccnc3)[nH]n2)c1 (configuration not stated)	inconclusive: 3.98 µM [inhibitor, single point]
CC(C(=O)NCc1nnc2ccc(-c3ccccc3)nn12)c1ccccc1 (configuration not stated)	inactive
O=C(CSc1cn(CCNC(=O)c2c(F)cccc2F)c2ccccc12)Nc1ccccc1F	inconclusive: 39.8 µM [inhibitor, single point]
CCCC(=O)NCCc1c2n(c3ccc(OC)cc13)CCCc1ccccc1-2	inconclusive: 39.8 µM [inhibitor, single point]
COC[C@@H]1CN(C(=O)COc2ccccc2)C[C@H]1c1ccccn1	inconclusive: 3.16 µM [inhibitor, partial curve, poor fit]

Compound	Potency
CN(C)c1cccc(C(=O)Nc2ncc(-c3cnn(C)c3)c3c2OCC3)c1	inactive
CNC(=O)c1cc(-c2ccc(F)cc2OC)cc2c1OCCN2Cc1cccnc1	inactive
CC(C)c1cccc(NC(=O)Cn2nc3n(c2=O)CCCCC3)c1	inconclusive: 4.47 µM [inhibitor, single point]
O=C(NCCc1ccc(F)cc1)C(=O)NCC(c1cccs1)S(=O)(=O)c1ccccc1 (configuration not stated)	inactive
Cc1ccc2[nH]c(CN3CC[C@H]4NCCC[C@]4(CO)C3)cc(=O)c2c1	inactive
C[C@H]1[C@@H]2[C@@H](O)C([C@H](C)C(=O)NCc3ccc(F)cc3)CC[C@@]2(C)CC[C@@H]1NC(=O)Cc1ccccc1 (some centres not stated)	inconclusive: 2.82 µM [inhibitor, partial curve, poor fit]
CCc1ccc(C(=O)N2CCC(c3cc(-c4cccc(OC)c4)n[nH]3)CC2)cc1	inactive
CN(C)c1cccc(Nc2cc3c(cn2)CN(Cc2ccccc2)CCN3)c1	inactive
COc1ccccc1N1CCN(C(=O)c2ccc3c(c2)CCN3S(=O)(=O)c2ccccc2)CC1	inconclusive: 7.08 µM [inhibitor, single point]
Cn1nc(C2CCCN2)c2c(C(=O)NCc3cccs3)cc(C3CC3)nc21 (configuration not stated)	inactive
O=C(COc1ccccc1-n1cnnc1)NC1CCCc2c1[nH]c1ccccc21 (configuration not stated)	inactive
COc1ccc(Cl)cc1S(=O)(=O)N1CCN(C(=O)c2cc(-c3ccc(Br)cc3)n[nH]2)CC1	inconclusive: 39.8 µM [inhibitor, single point]
Cc1ccc(-n2ncc3c(N4CCN(Cc5ccccc5)CC4)ncnc32)cc1	inactive
Cc1cccc(C(=O)Nc2ccc(S(=O)(=O)N3CCCCC3c3cccnc3)cc2)c1 (configuration not stated)	inconclusive: 39.8 µM [inhibitor, single point]
O=C(NCCc1ccccc1)C1=NO[C@@H]2CN(Cc3ccc(F)cc3)C[C@H]12	inactive
COC(=O)Nc1nc2ccc(S(=O)c3ccccc3)cc2[nH]1 (configuration not stated)	inconclusive: 21.5 µM [inhibitor, partial curve, poor fit]
CC(C)c1ccc(NC(=O)CCNS(=O)(=O)c2cccc3nsnc23)cc1	inconclusive: 3.55 µM [inhibitor, single point]
CCc1cccc(Nc2nc(-c3ccc(OC)c(OC)c3)no2)c1	inactive
O=C(NCCCN1CCc2ccccc2C1)c1c(OCC2CC2)cc(=O)n2c1CCCCC2	inactive
Cc1ccc(NC(=O)c2nc(-c3ccncc3)no2)c(Cl)c1	inconclusive: 7.08 µM [inhibitor, partial curve, poor fit]
O=C1CC(c2ccccc2)N(S(=O)(=O)c2cccc(F)c2)CCCCCN1 (configuration not stated)	inconclusive: 39.8 µM [inhibitor, single point]
COCCN1CCNc2cc(Nc3cccc(N(C)C)c3)ncc2C1	inactive
OC[C@@H]1CN(Cc2ccncc2F)C[C@H]1c1nc(-c2cccnc2)no1	inconclusive: 2.51 µM [inhibitor, full curve, poor fit]

Compound	Potency
CN1C[C@H](NCc2cccc(Cl)c2)CCC[C@@H](C(=O)NCc2cc(F)cc(F)c2)CC1=O	inconclusive: 22.4 µM [inhibitor, partial curve, poor fit]
CC(=O)N1CCN(C(=O)c2nc3sccn3c2-c2ccc(C(F)(F)F)cc2)CC1	inconclusive: 3.16 µM [inhibitor, partial curve, poor fit]
CCOc1ccc(NC(=O)Cn2c(=O)oc3cc(S(=O)(=O)N4CCC(C)CC4)ccc32)cc1	inconclusive: 39.8 µM [inhibitor, single point]
CC(=O)NCCNc1ncncc1-c1ccc(N(C)C)cc1	inconclusive: 17.8 µM [inhibitor, partial curve, poor fit]
Cn1nccc1CN1CCC(n2cc[nH]c2=O)CC1	inconclusive: 12.6 µM [inhibitor, single point]
Cn1ncc2c(C(=O)NCCCc3ccccc3)cc(-c3ccccc3)nc21	inconclusive: 44.7 µM [inhibitor, single point]
COCCNC(=O)C1COC2(CCN(C(=O)c3ccccc3F)CC2)N1C(=O)c1ccco1 (configuration not stated)	inactive
COCCNC(=O)[C@@H]1C[C@H](Oc2cccnc2)CN1C(=O)C1CC=CC1	inactive
CCCNc1cc(N2CCC(CCC(=O)O)CC2)ncn1	active: 1.12 µM
COc1ccc(-c2nc3cnccn3c2NCCC(=O)N2CCCC(C)C2)cc1 (configuration not stated)	inactive
COC(=O)N1CCC(C(=O)N2CCC(c3nc4ncccc4[nH]3)CC2)C1 (configuration not stated)	inconclusive: 3.55 µM [inhibitor, full curve]
O=C1NC(=NC2CCCCC2)C2(CCN([S+](=O)([O-])c3cccc(C(F)(F)F)c3)CC2)N1c1cccnc1	inconclusive: 2 µM [inhibitor, partial curve, poor fit]
CCCc1nc(NCc2nc(Cc3cccs3)no2)c2cnn(C)c2n1	inconclusive: 7.94 µM [inhibitor, full curve, poor fit]
CCN1c2cc(C(=O)Nc3cccc(C(F)(F)F)c3)ccc2C(=O)N2CCCCCC21 (configuration not stated)	inconclusive: 39.8 µM [inhibitor, single point]
COc1ccc(C(=O)N[C@@H]2CCC[C@@H]2C(=O)N2CCN(c3ccc(Cl)cc3)CC2)cc1	inconclusive: 20 µM [inhibitor, single point]
CN(C)c1ccc(-c2ccc3ncnc(-n4ccnc4)c3c2)cc1	inconclusive: 10 µM [inhibitor, partial curve, poor fit]
O=C1NCc2ccccc2CC12CCCN2Cc1ccc(OC(F)(F)F)cc1 (configuration not stated)	inconclusive: 12.6 µM [inhibitor, partial curve, poor fit]
Cc1cn2nc(C(=O)Nc3ccc(C(F)(F)F)cc3)cc2c(N2CCSCC2)n1	inactive
Cc1noc([C@@H]2CN(C(=O)c3nn(C)c4ccccc34)C[C@H]2CO)n1	inconclusive: 35.5 µM [inhibitor, single point]
Cc1ccc(OCC(=O)c2ccc3c(c2)N(CCCC(=O)N2CCCC2)C(=O)CO3)cc1C	inconclusive: 5.62 µM [inhibitor, single point]
COc1ccc(NC(=O)c2sc3nc[nH]c(=O)c3c2C)cc1OC	inconclusive: 25.1 µM [inhibitor, partial curve, poor fit]
